Assay results from the RNAGym collection of RNA variant scans (doi:10.7554/elife.90254).
The source gives no read counts; variants with many changes may rest on few reads.

B1: LINE1-mini (parent)
chain: GGCAGAGCUCAACACAGCGUGGCAAAGUGGCUGUGGCUAGACUGCC

Variants of: B1
Assay: self-cleavage, relative activity (ratio to wild type); higher = more cleavage; in vitro, sequencing; the parent is a self-cleaving ribozyme

| Variant | self-cleavage |
| --- | --- |
| G1U G2C G30C C31A G33U G35A | 0.01 |
| G2A C18A G22A C23G A24G G35C | 0.05 |
| G1U G19U C23U A39G | 0.03 |
| G2A C15G G21A U28G G33U U38G | 0 |
| G2A C8A G30C G36U | 1.84 |
| G2A G5A C13A C15A A26C | 0.59 |
| G2A A11G C13A G22C | 0.02 |
| G2A A14G C15G A26C | 0.08 |
| G1U U9A A14G G40C U43G | 0.19 |
| G1U G5A G19A U20C C23A G27U G35A G40C A41C | 0.12 |
| G2A A11G A12G A16U C46U | 0.01 |
| G1U G2U C3G A39C U43A | 0.03 |
| G2A C15G G33A | 0.05 |
| G2A A12G A26U G40U U43A C45U | 0.03 |
| G1U G35A A39G A41G C42G | 0.04 |
| G2A C13A C18A G21A A24U | 0.05 |
| G2A A4U C10G G36U C45U | 0.02 |
| G1U G35U G36U | 0.09 |
| G2A A11G A12C C13U G17A C31G | 0.04 |
| G1U G5C U20A C23U | 0.02 |
| G1U G2C G7U | 0.02 |

| Variant | self-cleavage |
| --- | --- |
| G1U G2A G27A C37U C46G | 0.23 |
| G2A C15A G40U | 0.05 |
| G1U G21C G30A G35U C46G | 0.04 |
| G1U C18U A26U G36A | 0 |
| G2A A11C A26C U28A G29C C37A U43A | 0 |
| G2A C42U G44U | 0.24 |
| G2A C10A C45G | 0.05 |
| G2A A4U G29U A41U C45G | 0.07 |
| G2A C13A G19U U34A C45G | 0.12 |
| G2A A14U C15A G19U G44A | 0.12 |
| G1U G7C U34C C37U U38C | 0.1 |
| G2A A6C C15A U32A C45A | 0.03 |
| G2A G5U C10A C13U U32C | 0.03 |
| G2A A25U C46U | 1.11 |
| G1U G27A G29U G30A | 0.53 |
| G1U G19U G27C G30U U34G | 0.03 |
| G2A C8U C18U C31A | 0.14 |
| G2A C8U C13U A14C G35U | 0.46 |
| G1U G7C G21A | 0.1 |
| G2A A6C C18U C23G A25U U28C | 0.11 |
| G2A A16G C42A | 0.07 |

| Variant | self-cleavage |
| --- | --- |
| G1U C18U C31U | 0.01 |
| G2A A14U A26G G30A | 0.36 |
| G1U U20C A24C | 0.44 |
| G2A C23U G27U C31G G35C | 0.17 |
| G2A A12G C15A | 0.08 |
| G2A A4C C8U G19C A24G G35A C37G | 0.31 |
| G1U G7C C18U G27U | 0.46 |
| G2A C37U U38C | 0.21 |
| G2A A14U A16U G36A | 0.15 |
| G1U U20G G27U | 0.07 |
| G1U G33C G35U | 0.09 |
| G1U U9C G44C C46A | 0 |
| G1U G7U C13A | 0.02 |
| G1U G36C U38G | 0 |
| G2A C18G U34C | 0.09 |
| G1U G5U G22C U32A G35U | 0.01 |
| G2A C8A C10A A11G G17C G22U | 0.03 |
| G1U U20C G29U | 0.05 |
| G2A C13A C23A | 0.15 |
| G1U U9G G35A G40A | 0.01 |
| G1U U38C G40U | 0.07 |

| Variant | self-cleavage |
| --- | --- |
| G2A A4C A39U | 2.24 |
| G1U G5A A11U A26C U32A | 0.01 |
| G1U U28A U34A | 0.07 |
| G2A C3A A16C A25C G29U G36C C37G | 0.37 |
| G2A C3U A11G | 0.04 |
| G2A C18U G36A | 0.68 |
| G2A A6C A16U G44U | 0.24 |
| G2A A25U G27U U43C | 0.05 |
| G2A A6C C10A G19U G30C | 0.01 |
| G2A C10U A12G C31G | 0.13 |
| G1U G40C U43G | 0.05 |
| G2A C3U G22C G35U U38A | 0.71 |
| G1U C18U C23A G30A C46U | 0.48 |
| G2A C31G G33U G36U A39C | 0.03 |
| G1U G7A C10G A11U G19A G22U C42G | 0 |
| G1U U9C G21C G22U | 0 |
| G1U G2U G30C A41C | 0 |
| G1U G2U U32A C45U | 0.03 |
| G2A A14G C18A | 0.37 |
| G1U C31A C45U C46A | 0.03 |
| G2A C10G U43G | 0.01 |
